Results taken from publication PMC4336329 (PLoS ONE, 2015).
Hit rate of the full screen: of about 310,000 compounds, about 14,000 (4.5%) showed an effect of 50% or more. Effects have a minus sign here. Some of the results follow.

Biological target: human ether-à-go-go-related gene (hERG) potassium channel (human, UniProt Q12809)
Experiment: primary screen, population patch clamp on CHO cells stably expressing hERG
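Further: peak tail current of the secondary pulse compared with the same well before compound.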

human ether-à-go-go-related gene (hERG) potassium channel, sequence (Q12809 whole entry, looked up): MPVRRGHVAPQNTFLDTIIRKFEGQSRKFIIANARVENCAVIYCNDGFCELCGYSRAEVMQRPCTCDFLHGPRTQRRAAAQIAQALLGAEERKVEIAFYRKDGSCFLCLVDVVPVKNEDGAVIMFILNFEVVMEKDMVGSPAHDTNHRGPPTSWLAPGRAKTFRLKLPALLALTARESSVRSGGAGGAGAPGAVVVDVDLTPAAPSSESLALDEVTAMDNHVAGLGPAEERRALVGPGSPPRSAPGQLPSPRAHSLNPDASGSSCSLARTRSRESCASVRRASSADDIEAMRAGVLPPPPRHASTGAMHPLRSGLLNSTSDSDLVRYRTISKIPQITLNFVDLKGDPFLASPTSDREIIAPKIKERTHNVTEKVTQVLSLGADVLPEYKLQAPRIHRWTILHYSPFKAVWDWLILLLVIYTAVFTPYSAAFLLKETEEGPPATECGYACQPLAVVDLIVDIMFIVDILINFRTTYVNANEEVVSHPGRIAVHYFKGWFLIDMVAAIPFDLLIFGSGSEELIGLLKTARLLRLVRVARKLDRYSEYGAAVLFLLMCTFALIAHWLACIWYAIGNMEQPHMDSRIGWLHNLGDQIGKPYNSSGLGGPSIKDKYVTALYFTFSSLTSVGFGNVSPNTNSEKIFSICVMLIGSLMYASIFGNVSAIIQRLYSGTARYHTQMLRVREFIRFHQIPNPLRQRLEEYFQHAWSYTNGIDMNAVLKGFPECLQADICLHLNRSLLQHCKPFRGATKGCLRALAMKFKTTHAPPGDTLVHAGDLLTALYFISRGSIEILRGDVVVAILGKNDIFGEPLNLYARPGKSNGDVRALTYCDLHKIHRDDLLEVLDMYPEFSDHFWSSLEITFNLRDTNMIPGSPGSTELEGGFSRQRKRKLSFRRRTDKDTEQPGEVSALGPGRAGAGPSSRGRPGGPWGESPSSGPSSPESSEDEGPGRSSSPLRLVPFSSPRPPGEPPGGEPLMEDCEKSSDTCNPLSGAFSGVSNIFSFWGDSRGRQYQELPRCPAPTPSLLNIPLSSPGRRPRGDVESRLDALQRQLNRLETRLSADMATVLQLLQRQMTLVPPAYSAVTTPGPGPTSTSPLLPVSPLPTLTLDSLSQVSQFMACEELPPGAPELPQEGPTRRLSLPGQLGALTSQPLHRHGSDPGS

| Structure (SMILES) | hERG current change (%, negative = inhibition) at 10uM [%] |
| --- | --- |
| COc1ccc(NC(=O)CCSCCC(=O)Nc2ccc(OC)cc2OC)c(OC)c1 | 0.814 |
| C/C(=N\Nc1ccc(Cl)c(C(=O)O)c1)c1ccc(Br)s1 | -8.21 |
| CC(=O)c1ccc(S(=O)(=O)NC2CCSc3ccccc32)cc1 (stereo not drawn) | -5.32 |
| CCC(=O)N1CCc2cc(S(=O)(=O)CCC(=O)NC(C)CC)ccc21 (stereo not drawn) | 13 |
| CCOC(=O)c1ccccc1NC(=O)COC(=O)CCCOc1ccccc1 | 7.53 |
| O=C(/C=C/c1ccc(F)cc1)NC(=S)N1CCCCC1c1cccnc1 (stereo not drawn) | -68.1 |
| Cc1ccc(S(=O)(=O)N2CCN(C(=O)c3cccs3)CC2)c(C)c1 | -24.9 |
| COc1ccccc1NC(=O)CSc1nnc(-c2ccco2)n1N | -3.82 |
| COc1ccc(CNc2nccs2)cc1OC | 18.2 |
| CC1CN(O)C2CCc3c(no[n+]3[O-])C12O (stereo not drawn) | 5.23 |
| COc1ccc(N(C(=O)c2snc(C(N)=O)c2N)C(C(=O)NC2CCCCC2)c2ccc(C)o2)c(OC)c1 (stereo not drawn) | -7.44 |
| COc1ccccc1-c1nnn(CC#N)n1 | -0.346 |
| CCOc1cc(Br)c(CC(=O)NC2CCCCCC2)cc1OCC | 2.53 |
| CC(C)(C)NC(=O)C(c1ccc(O)cc1)N(Cc1ccco1)C(=O)Cn1nnc(-c2cccs2)n1 (stereo not drawn) | -29.9 |
| CCNC(=O)COc1ccc(Br)cc1Cl | 4.31 |
| O=C(CSc1ccccc1C(=O)N1CCN(c2ccccc2)CC1)N1CCCC1 | 6.45 |
| COc1ccc(C(=O)OCC(=O)NC(=O)NC2CCCC2)c(OC)c1 | 28.5 |
| CCC(NS(=O)(=O)c1ccc(C)cc1)C(=O)N1CCOCCOCCOCC1 (stereo not drawn) | 28.9 |
| COc1ccccc1NC(=S)N(Cc1ccccn1)Cc1ccccc1Cl | -9.66 |
| O=C(CNC(=O)c1ccncc1)N/N=C/c1ccccn1 | 12.7 |
| O=C(Nc1ccc(Oc2ncnc3cc(Cl)ccc23)nc1)Nc1cccc(C(F)(F)F)c1 | 0.134 |
| O=C(NNC(=O)c1ccc(Cn2cccn2)o1)NC12CC3CC(CC(C3)C1)C2 | 2.5 |
| COC(=O)c1c(NC(=O)CCCC(=O)O)sc(C)c1C | 10.3 |

| Structure (SMILES) | hERG current change (%, negative = inhibition) at 10uM [%] |
| --- | --- |
| CCOC(=O)C1CCCN(S(=O)(=O)c2nc3nc(C)cc(C)n3n2)C1 (stereo not drawn) | 14.2 |
| O=C(NCCCc1ccncc1)C1CCC(=O)N(Cc2ccc(Cl)cc2)C1 (stereo not drawn) | -61.1 |
| COc1ccc(-c2noc3c2-c2nc(-c4ccc(Cl)cc4)sc2CC3)cc1 | 9.5 |
| CCOC(=O)c1c(-c2ccccc2)n(C)c2ccc(O)cc12 | 10.3 |
| CCOC(=O)c1sc(NC(=O)c2cccnc2)c(C#N)c1C | 27.1 |
| O=C(NCc1ccc2c(c1)OCO2)c1ccc(CS(=O)(=O)c2cccc(C(F)(F)F)c2)o1 | -24.2 |
| COc1ccc(-c2cn3cccnc3n2)cc1NC(=O)c1cc(OC)c(OC)c(OC)c1 | -10.9 |
| CC(=O)Nc1ccc(-n2nnnc2SCC(=O)NCc2cccs2)cc1 | 9.76 |
| O=C(N/N=C/c1ccc(OCCCF)cc1)c1cc(OCC(F)(F)F)ccc1OCC(F)(F)F | 10.3 |
| CC(C)(C)n1nc2c(c1NC(=O)Cc1ccc(F)cc1)CSC2 | 4.68 |
| CC(=O)c1oc2ccccc2c1NC(=O)CCCN1C(=O)c2ccccc2C1=O | 5.21 |
| COc1ccc(-c2nc(C(N)=O)c3[nH]c(=O)n(-c4cccc(C)c4)c3n2)c(OC)c1 | -16.8 |
| CC(C)(Oc1ccc(Br)cc1)C(=O)N1CCc2ccccc21 | 9.84 |
| CS(=O)(=O)N1CCCC(C(=O)NCCCN2CCc3ccccc3C2)C1 (stereo not drawn) | -7.27 |
| Cc1c(NC(=O)C(C)c2ccc(CC(C)C)cc2)c(=O)n(-c2ccccc2)n1C (stereo not drawn) | -9.77 |
| CC(=O)Nc1ccc(S(=O)(=O)NNC(=O)c2ccc(C)cc2)cc1 | -12.6 |
| CCc1nnc(NC(=O)/C=C/c2ccco2)s1 | 25.4 |
| Nc1nc(Cl)cc(Oc2ccc(Cl)cc2)n1 | 9.29 |
| CC(C)(C)C(=O)/C=C(\N)c1ccncc1 | 1.74 |
| O=C1CSC(c2ccc([N+](=O)[O-])cc2)N1Cc1ccccc1 (stereo not drawn) | -48.8 |
| Cc1ccc(S(=O)(=O)N2CCN(C(=O)c3c(-c4ccccc4)noc3C)CC2)cc1C | 1.83 |
| O=S(=O)(c1cccc(S(=O)(=O)N2CCC(n3nnc4ccccc43)CC2)c1)N1CCCCC1 | -55.7 |
| COc1ccc(CN2CCN(Cc3cccc(Oc4ccccc4)c3)CC2)c(OC)c1OC.O=C(O)C(=O)O | -58 |

| Structure (SMILES) | hERG current change (%, negative = inhibition) at 10uM [%] |
| --- | --- |
| Cn1c2ccccc2c2n[nH]c(=O)nc21 | 17.5 |
| O=C1CCCCN1CCC(=O)N1CCCC(N2CCN(c3cccc(Cl)c3)CC2)C1 (stereo not drawn) | -21.3 |
| C#CC1(O)CC(C)NCC1(C)CCC#N (stereo not drawn) | 5.51 |
| CCc1ccc(NC(=O)Cn2ncc3c4ccccc4n(C)c3c2=O)cc1 | 11.6 |
| Cc1cc([N+](=O)[O-])nn1Cc1ccccc1F | 6.01 |
| COCCn1c(SCC(=O)Nc2cc(C)on2)nc2c(c1=O)SC(C)C2 (stereo not drawn) | 10.5 |
| COC(=O)[C@@H]1C[C@@]2(O)[C@@H](O)[C@@H](O)[C@@H](O)C[C@H]2N1C/C=C/c1ccccc1 | 11.2 |
| COc1ccccc1-c1cc(C(F)(F)F)n2ncc(C(=O)N3CCc4ccccc4C3)c2n1 | 0.682 |
| Cc1cccc(-n2c(=O)c3c(C)c(C)sc3n(CC(N)=O)c2=O)c1 | -13.2 |
| O=C(CCc1nnc(C2CCCCC2)o1)NCCCOc1cccnc1 | 10.6 |
| O=C(O)C1CCCN1C(=O)NC1CCCCC1 (stereo not drawn) | 20.8 |
| Cc1sc2ncn(CC(=O)Nc3cccc(S(N)(=O)=O)c3)c(=O)c2c1-c1ccccc1 | 9.25 |
| Cc1ccc(C)c(-n2nnnc2Sc2nnnn2-c2ccccc2)c1 | -13.8 |
| O=C(CN1C(=O)S/C(=C\c2ccc(O)cc2)C1=O)c1ccccc1 | 12.5 |
| Br.CCc1ccc(OCC(=O)NN2Cc3ccccc3C2=N)cc1 | -38.8 |
| NS(=O)(=O)c1ccc(NC(=O)COc2ccc(S(=O)(=O)N3CCCC3)cc2)cc1 | 21 |
| Cc1cc(C)n2nc(SCc3nc4ccccc4[nH]3)nc2n1 | -6.44 |
| CCOC(=O)Cc1cc(=O)n2[nH]c(C)cc2n1 | -22.3 |
| Cc1ccc(C)c(CN2C(=O)C3(OCCCO3)c3ccccc32)c1 | -7.5 |
| Cc1noc(C)c1C(=O)Nc1ccccc1N1CCOCC1 | -3.82 |
| COc1ccc(-c2nc(CS(=O)CC(=O)NCCCN3CCCC3)c(C)o2)cc1OC (stereo not drawn) | -3.81 |
| CCOc1cc(/C=N/n2cnnc2)ccc1OCC(=O)Nc1ccccc1OC | 0.488 |
| Cn1c(=O)n(C)c2cc(S(=O)(=O)Nc3ccccc3)ccc21 | 10.6 |

| Structure (SMILES) | hERG current change (%, negative = inhibition) at 10uM [%] |
| --- | --- |
| COc1cccc(C(=O)N2CCN=C2SC)c1 | 14.9 |
| COC(=O)c1ccccc1NC(=O)NC1CC1 | 19.5 |
| O=C1CC(N2CCOCC2)C(=O)N1CCN1C(=O)CC(N2CCOCC2)C1=O (stereo not drawn) | 6.4 |
| O=C(Nc1ccccn1)C1CCCN(c2ncnc3c2nc2n3CCCCC2)C1 (stereo not drawn) | -34.8 |
| CCc1nc(SCC(N)=O)c2c(=O)n(C)c(=O)n(C)c2n1 | 6.27 |
| CCC(C)NC(=O)CN(C1CCCCC1)S(C)(=O)=O (stereo not drawn) | 9.11 |
| Cc1cc(C(=O)Nn2c(-c3ccncc3)nc3ccccc3c2=O)ccc1[N+](=O)[O-] | 31.8 |
| N#Cc1ncc(Cl)c2ccccc12 | 9.95 |
| Cc1ccc(C)c(NC(=O)CSc2nnc(NC(=O)C3CC3)s2)c1 | 18.6 |
| COc1ccc(OC)c(S(=O)(=O)NC2CCSc3ccccc32)c1 (stereo not drawn) | -7.58 |
| Cc1noc(C)c1CN(C(=S)NC1CC2CCC1C2)c1ccccc1 (stereo not drawn) | -13 |
| CCN(CCCNC(=O)CCCOc1cc(=O)n(C)c2ccccc12)Cc1ccccc1 | -12.1 |
| Cl.O=C(O)c1ccc(OCCn2ccnc2)cc1 | 17.6 |
| Cc1ccc(-n2nc3c(=O)n(CCCC(=O)NCc4ccccc4C)nc(C)c3c2C)cc1 | 0.63 |
| COc1ccc(CN(C)CC2CCCN(CCc3ccc(Cl)cc3)C2)cc1OC (stereo not drawn) | -88.5 |
| O=C(CSc1ccc2c(c1)OCCO2)Nc1ncc(Cl)cc1Cl | -4.28 |
| COc1ccccc1CNS(=O)(=O)c1ccc2c(c1)N(C(C)=O)CCO2 | -9.33 |
| O=C(O)CC(NC(=S)NCc1ccccc1)C(=O)O (stereo not drawn) | -5.48 |
| CC(=O)Nc1ccc(NC(=O)Nc2ccccc2C)cc1 | 7.58 |
| O=C1CCN(CCc2ccccc2)CCN1[C@H](CO)Cc1ccccc1 | -44.4 |
| N#CC1=C(N)C(C#N)(C#N)C2(CCC3(CC2)OCCO3)C2CC3(CC=C12)OCCO3 (stereo not drawn) | -2.56 |
